The subject of this test is OVCAR8. Description: cell count relative to DMSO vehicle (fold change); OVCAR8 is a high-grade serous ovarian cancer line and CX-5461 an RNA polymerase I inhibitor; higher = more surviving senescent cells (less killing). Conditions: senescence inducer: CX-5461 3 µM 48 h, then 6 d recovery (CX senescent), exposure time 24 h.

Structures can show the parent of a compound that is named as a salt. ± gives the standard deviation of the averaged measurements. Some of the results follow.

Compound `CCN1CCN(C(=O)Cc2ccc(Nc3ncc(F)c(Nc4ccc(C(=O)Nc5ccccc5Cl)cc4)n3)cc2)CC1` [Aurora A Inhibitor I] returned a cell count (compound dose 1 µM) of 1.01 ± 0.14 and a cell count (compound dose 5 µM) of 0.913 ± 0.11.

`CO[C@H]1C[C@H](O[C@H]2CC[C@]3(C)[C@H]4CC[C@]5(C)[C@@H](C6=CC(=O)OC6)CC[C@]5(O)[C@@H]4CC[C@]3(O)C2)O[C@H](C)[C@H]1O[C@@H]1O[C@H](CO)[C@@H](O)[C@H](O)[C@H]1O` [Periplocin] returned a cell count (compound dose 1 µM) of 0.223 ± 0.19 and a cell count (compound dose 5 µM) of 0.015 ± 0.0028.

For `CN(C)C(=O)OC1=C(c2cccc3ccccc23)Oc2ccccc2-n2cccc21`, the cell count by setting is: (compound dose 1 µM) 1.04 ± 0.11; (compound dose 5 µM) 0.957 ± 0.25.

As for `CCOC(=O)[C@H](Cc1ccc(F)cc1)NC(=O)[C@@H](N)Cc1ccc(N(CCCl)CCCl)cc1` [Melflufen (hydrochloride)], the cell count is 0.889 ± 0.28 (compound dose 1 µM) and 0.117 ± 0.0078 (compound dose 5 µM).

For `CC1=CC(=O)[C@@H](O)[C@]2(C)[C@H]3[C@@H](O)[C@H](O)[C@]4(C)OC[C@@]35[C@@H](C[C@@H]12)OC(=O)[C@H](O)[C@]54O` [Bruceine D], the cell count reads like this: (compound dose 1 µM) 0.995 ± 0.1; (compound dose 5 µM) 0.96 ± 0.069.

In turn, `O=C(O)c1nn(Cc2ccc(Cl)cc2Cl)c2ccccc12` gave a cell count (compound dose 1 µM) of 1.21 ± 0.081 and a cell count (compound dose 5 µM) of 1.22 ± 0.04.

As to `C[S+]([O-])/C=C/CCN=C=S` (centres undefined) [Sulforaphene], the cell count came out at 1.2 ± 0.23 (compound dose 1 µM) and 1.05 ± 0.15 (compound dose 5 µM).

Take `S=P1(c2ccccc2)Nc2ccccc2O1` (centres undefined): the cell count by setting is: (compound dose 1 µM) 1.05 ± 0.22; (compound dose 5 µM) 1.16 ± 0.2.

As to `COc1cc2c(c(OC)c1OC)-c1ccc(OC)c(=O)cc1[C@@H](NC(C)=O)CC2` [Colchicine], the cell count turned out to be 1.24 ± 0.0057 (compound dose 1 µM) and 1.09 ± 0.18 (compound dose 5 µM).

Regarding `O=C(O)CC[N+](=O)[O-]` [3-Nitropropanoic acid], the cell count by setting is: (compound dose 1 µM) 1.14 ± 0.051; (compound dose 5 µM) 1.09 ± 0.25.

As for `CC(C)=CCCC(C)(O)C1CCC2(C)C1C(O)CC1C3(C)CCC(OC4OC(CO)C(O)C(O)C4O)C(C)(C)C3CCC12C` [20(R)-Ginsenoside Rh2], the cell count came out at 1.113 ± 0.011 (compound dose 1 µM) and 1.17 ± 0.093 (compound dose 5 µM).

Turning to `O=C(CBr)N1CC([N+](=O)[O-])([N+](=O)[O-])C1`, the cell count is 1.09 ± 0.16 (compound dose 1 µM) and 1.13 ± 0.24 (compound dose 5 µM).

For the compound `S=C=NCc1ccccc1`, the cell count (compound dose 1 µM) stood at 0.944 ± 0.063 and the cell count (compound dose 5 µM) is 0.992 ± 0.28.

For the compound `CC[C@@H](C(=O)[C@@H](C)[C@@H](O)[C@H](C)[C@@H]1O[C@@H]([C@@H](CC)C(=O)O)CC[C@@H]1C)[C@H]1O[C@]2(C=C[C@@H](O)[C@]3(CC[C@@](C)([C@H]4CC[C@](O)(CC)[C@H](C)O4)O3)O2)[C@H](C)C[C@@H]1C` [Salinomycin], the cell count runs as follows: (compound dose 1 µM) 1.03 ± 0.11; (compound dose 5 µM) 0.988 ± 0.077.

Regarding `CC[C@@H](C(=O)[C@@H](C)[C@@H](O)[C@H](C)[C@@H]1O[C@@H]([C@@H](CC)C(=O)O)CC[C@@H]1C)[C@H]1O[C@]2(C=C[C@@H](O)[C@]3(CC[C@@](C)([C@H]4CC[C@](O)(CC)[C@H](C)O4)O3)O2)[C@H](C)C[C@@H]1C` [Salinomycin (sodium salt)], the cell count by setting is: (compound dose 1 µM) 1.16 ± 0.13; (compound dose 5 µM) 1.03 ± 0.021.

On to `OC(Cc1ccncc1)C(Cl)(Cl)Cl` (centres undefined), for which the cell count by setting is: (compound dose 1 µM) 1.13 ± 0.18; (compound dose 5 µM) 1.13 ± 0.2.

For `Cn1cc(C2=C(c3cn(C4CCN(Cc5ccccn5)CC4)c4ccccc34)C(=O)NC2=O)c2ccccc21`, the cell count turned out to be 1.12 ± 0.13 (compound dose 1 µM) and 1.18 ± 0.076 (compound dose 5 µM).

As to `C[C@@H]1CC[C@@]2(OC1)O[C@H]1C[C@H]3[C@@H]4CC=C5C[C@@H](O[C@@H]6O[C@H](CO)[C@@H](O[C@@H]7O[C@@H](C)[C@H](O)[C@@H](O)[C@H]7O)[C@H](O)[C@H]6O[C@@H]6O[C@@H](C)[C@H](O)[C@@H](O)[C@H]6O)CC[C@]5(C)[C@H]4CC[C@]3(C)[C@H]1[C@@H]2C` [Dioscin], the cell count came to 1.09 ± 0.15 (compound dose 1 µM) and 0.415 ± 0.14 (compound dose 5 µM).

As to `O=C1C=CC[C@@H]2[C@H]3CCCN4CCC[C@@H](CN12)[C@@H]34` [Sophocarpine], the cell count by setting is: (compound dose 1 µM) 1.07 ± 0.25; (compound dose 5 µM) 1.05 ± 0.17.

As to `CN1Cc2c(ccc3c2OCO3)[C@@H]2[C@H]1c1cc3c(cc1C[C@@H]2O)OCO3` [Chelidonine], the cell count is, setting by setting: (compound dose 1 µM) 1.25 ± 0.29; (compound dose 5 µM) 1.36 ± 0.03.

Turning to `COc1cc2c3cc1Oc1c(OC)c(OC)cc4c1[C@@H](Cc1cccc(c1)Oc1ccc(c(O)c1)C[C@@H]3N(C)CC2)N(C)CC4`, the cell count (compound dose 1 µM) was determined as 1.13 ± 0.017 and the cell count (compound dose 5 µM) amounted to 1.16 ± 0.037.

For `O=C(O)C(=O)c1cn(Cc2ccccc2)c2ccc(-c3ccc(OC(F)(F)F)cc3)cc12` [Tiplaxtinin], the cell count runs as follows: (compound dose 1 µM) 1.22 ± 0.31; (compound dose 5 µM) 1.19 ± 0.36.

In turn, `CC(C)=CCC[C@](C)(O)[C@H]1CC[C@]2(C)[C@@H]1[C@H](O)C[C@@H]1[C@@]3(C)CC[C@H](O[C@@H]4O[C@H](CO)[C@@H](O)[C@H](O)[C@H]4O)C(C)(C)[C@@H]3CC[C@]12C` [Ginsenoside Rh2] yielded a cell count (compound dose 1 µM) of 1.04 ± 0.1 and a cell count (compound dose 5 µM) of 0.914 ± 0.22.

Turning to `CC(C)[C@]12O[C@H]1[C@@H]1O[C@]13[C@]1(O[C@H]1C[C@H]1C4=C(CC[C@@]13C)C(=O)OC4)[C@@H]2O` [Triptolide], the cell count was 0.94 ± 0.16 (compound dose 1 µM) and 0.895 ± 0.021 (compound dose 5 µM).

With `CC(C)(C)c1cc(C=C(C#N)C#N)cc(Br)c1O`, the cell count was determined as 1.07 ± 0.047 (compound dose 1 µM) and 1.08 ± 0.059 (compound dose 5 µM).

As to `O=C(c1ccccc1O)c1[nH]c(Cl)c(Cl)c1-n1c(C(=O)c2ccccc2O)cc(Cl)c1Cl` [Maritoclax], the cell count turned out to be 1.24 ± 0.44 (compound dose 1 µM) and 1.23 ± 0.31 (compound dose 5 µM).

Turning to `CC(=O)O[C@H]1C[C@]2(O)[C@@H]3CC[C@@H]4C[C@@H](O)CC[C@]4(C)[C@H]3CC[C@]2(C)[C@H]1c1ccc(=O)oc1` [Bufotalin], the cell count was 0.024 ± 0.025 (compound dose 1 µM) and 0.0195 ± 0.0064 (compound dose 5 µM).

(Values after the supplement of paper PMC12462457.)
